The full ranking holds about 33,000 sequences; the median of “E-score (-0.5 to 0.5)” is about -0.013, and the highest 2% start at about 0.3. The list shows a part of the results.
Each sequence was assayed against T1, Msn1 (UniProt P22148) (assay: PBM E-score (8-mer binding enrichment) (E-score (-0.5 to 0.5)); higher = stronger / more preferred TF binding; most listed sequences are background and not binding sites). Settings: protein concentration: 200 nM; construct: GST-full length.
T1 sequence: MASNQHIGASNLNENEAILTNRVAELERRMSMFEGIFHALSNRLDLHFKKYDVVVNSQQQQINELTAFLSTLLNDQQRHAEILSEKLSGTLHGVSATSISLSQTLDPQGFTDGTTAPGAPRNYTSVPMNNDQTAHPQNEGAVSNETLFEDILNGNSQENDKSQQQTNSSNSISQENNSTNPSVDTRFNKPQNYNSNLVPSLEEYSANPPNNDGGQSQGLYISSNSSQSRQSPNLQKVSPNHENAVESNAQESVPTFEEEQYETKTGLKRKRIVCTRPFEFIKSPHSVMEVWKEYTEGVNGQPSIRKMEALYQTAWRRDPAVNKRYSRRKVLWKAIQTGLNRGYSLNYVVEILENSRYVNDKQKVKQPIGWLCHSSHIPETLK
Summary of the method: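 The E-score, a modified Wilcoxon-Mann-Whitney statistic, was computed by the Universal PBM Analysis Suite for every ungapped eight-base word pooled with its reverse complement. Scans behind it were normalised with masliner after bound GST-tagged yeast transcription factors were detected with fluorescent anti-GST. The proteins, at about 100-200 nM, had been applied to universal all-10-mer Agilent arrays made double-stranded by primer extension.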

| Sequence | PBM E-score |
| --- | --- |
| CGTAGCTA | -0.123 |
| GTACCTAA | 0.0172 |
| AACTCTGG | 0.0649 |
| ACCCGCCC | -0.137 |
| AATAATCC | 0.0495 |
| GATTTATA | 0.215 |
| CGGGCTGC | -0.113 |
| CTGGCTAC | -0.144 |
| ACAATCCT | 0.0491 |
| CACATATG | -0.121 |
| ATGTGTCA | 0.217 |
| AACCCTGC | -0.188 |
| AAGGGATA | 0.0672 |
| AACCAAGA | 0.188 |
| CGACAACC | 0.0461 |
| GCAAGCGA | -0.0199 |
| AAAGAGCT | -0.178 |
| AGTTGAAT | 0.124 |
| CAGCTCGC | -0.0622 |
| ATGGACTG | -0.00616 |
| CTGAAAGC | 0.0584 |
| TCCACCAA | 0.13 |

| Sequence | PBM E-score |
| --- | --- |
| AATTTCTC | 0.0103 |
| CGACTACA | 0.00361 |
| AGCTATAG | -0.255 |
| GGGGGTAC | -0.145 |
| AGCAAAGA | 0.0493 |
| GAAATTTC | -0.246 |
| AGGACCGC | -0.042 |
| GAGTACTA | 0.198 |
| ATGTGCGA | 0.0765 |
| CGTGCGCC | 0.0449 |
| ATTGGTCC | 0.201 |
| CACCAAGA | 0.0621 |
| ATGGCGGA | -0.141 |
| GCGGATAC | -0.00158 |
| AGGAGACT | -0.275 |
| AACGTTGG | 0.022 |
| CACGCTCA | 0.123 |
| AGTGGCAA | -0.0795 |
| ATAAGTCG | 0.0746 |
| AACCCTCC | -0.303 |
| CTCCACAA | -0.112 |
| CCGAACGG | 0.139 |

| Sequence | PBM E-score |
| --- | --- |
| GGGTAGGA | -0.102 |
| CTAAAGGA | 0.0586 |
| ATTTTTTG | 0.195 |
| GCCCAAAA | -0.0493 |
| GGATATCC | 0.12 |
| AGACGACT | 0.0368 |
| GAATATCC | -0.00573 |
| CACATTAG | -0.212 |
| ATTGCTAA | 0.22 |
| CGGAACTA | 0.175 |
| GTAGCTAC | 0.0785 |
| AGCAGTAG | -0.194 |
| CCGCCTAG | -0.0541 |
| AATGGTCC | 0.138 |
| AGACCAGA | 0.059 |
| AAGCGCAA | 0.0634 |
| AGGGAGGA | -0.232 |
| ACTGTGGA | -0.0783 |
| GATCCGCC | -0.0635 |
| CGCCTGAC | -0.0177 |
| GTCGAGCA | -0.194 |
| ATTCCCTG | -0.0999 |

| Sequence | PBM E-score |
| --- | --- |
| ATCTGCGA | 0.0576 |
| CCCGATCG | -0.0816 |
| GAACTGCC | -0.188 |
| ATGGAGTC | 0.038 |
| GACCGATA | 0.0836 |
| CGGTGGAA | -0.251 |
| AGGGAAAG | -0.175 |
| GAAGATAA | 0.0217 |
| AACTTAAG | 0.103 |
| CAAGTCAG | -0.0405 |
| ACGCAACT | 0.0605 |
| CTTGGATC | -0.00386 |
| CCGGCGTA | -0.0928 |
| CCTTCGAG | -0.0865 |
| GATTTTTA | -0.0562 |
| GATAGCCC | -0.263 |
| AACGTGCA | -0.152 |
| CATCTGGA | -0.103 |
| ACGACTCT | -0.0447 |
| CGATCACC | -0.0331 |
